Data published in patent publication US20250387505A1, “ANTI-FGFR3 ANTIBODY CONJUGATE AND MEDICAL USE THEREOF” (GENEQUANTUM HEALTHCARE (SUZHOU) CO., LTD., priority 2022, published 2025).

What was measured:
AMB-BT-0013T = experiment: In vitro cytotoxicity, 3D single spheroid model; assay type: cell-based, human; conditions: AMB-BT-0013T GBM PDCs, FGFR3 expression −, incubated for a week
Procedure: (§1) 1) 3D single spheroid model was formed by isolating cancer cells derived from glioblastoma patients. Two types of patient-derived cells with FGFR3 overexpression (AMB-BT-0050T, AMB-BT-0112T) and FGFR3 non-expression derived cells (AMB-BT-0013T), sampled from patients suffering from glioblastoma, were incubated overnight to form single spheroids (3D), followed by ADC was treated and incubated for a week, and then spheroid size and volume were quantified.

AMB-BT-0050T = experiment: In vitro cytotoxicity, 3D single spheroid model; assay type: cell-based, human; conditions: AMB-BT-0050T GBM PDCs, FGFR3 expression +++, incubated for a week
Procedure: as §1

[1] = tested on: AMB-BT-0039T cells with FGFR3-TACC3 fusion; experiment: Subcutaneous glioblastoma PDX model; assay type: in vivo, BALB/c nude mice; conditions: AMB-BT-0039T PDX, 8 mg/kg, QW, 2 times
Procedure: 1) AMB-BT-0039T cells with FGFR3-TACC3 fusion (GBM, patients-derived cells) in exponential growth stage were collected and counted for tumor inoculation. 0.1 mL of matrix gel buffer (PBS:Matrigel=1:1) was used to subcutaneously inject 1×10^6 cells into the right flank of SPF female BALB/c nude mice aged 6-8 weeks. The tumor diameter was measured with a caliper and the tumor volume was calculated according to the formula V=0.5 a×b^2 (wherein a is the long diameter of the tumor and b is the short diameter of the tumor). When the mean tumor volume was about 100-300 mm^3, the mice were randomized into vehicle group, and ADC20 8 mg/kg group. The day of first administration is defined as day 0. Mice in the vehicle group were given the solvent of ADC drugs with the same frequency and administration route. The tumor volume of mice in each group was measured twice a week. The experiment was end on day 24, and the tumor growth inhibition rate (TGI) was calculated as follows: TGI (%)=[1−(the mean tumor volume of the treatment group on the end day−the mean tumor volume of the treatment group on the first day)/(the mean tumor volume of the vehicle group on the end day−the mean tumor volume of the vehicle group on the first day)]×100%.

SW780 cells = experiment: Bladder cancer CDX model; assay type: in vivo, NOD SCID mice; conditions: 5 mg/kg, QW, 2 times, day 20
Procedure: 8.3) SW780 cells in exponential growth stage were collected and counted for tumor inoculation. 0.2 mL of matrix gel buffer (PBS:Matrigel=1:1) was used to subcutaneously inject 10×10^6 cells into the right flank of SPF female NOD SCID mice aged 6-8 weeks.
The tumor diameter was measured with a caliper and the tumor volume was calculated according to the formula V=0.5 a×b^2. When the mean tumor volume was about 100-300 mm^3, the mice were randomized into vehicle group, ADC19 5 mg/kg group and ADC20 5 mg/kg group. The day of first administration is defined as day 0. Mice in the vehicle group were given the solvent of ADC drugs with the same frequency and administration route. The tumor volume of mice in each group was measured twice a week. The experiment was end on day 20, and the tumor growth inhibition rate (TGI) was calculated as follows: TGI (%)=[1−(the mean tumor volume of the treatment group on the end day−the mean tumor volume of the treatment group on the first day)/(the mean tumor volume of the vehicle group on the end day−the mean tumor volume of the vehicle group on the first day)]×100%.

[2] = tested on: FGFR3-positive RT112 cells and FGFR3-negative U87MG cells; experiment: Bystander killing effect in RT112/U87MG co-culture; assay type: cell-based; conditions: incubation for a week, FIG. 11
Procedure: Far-Red labelled FGFR3-positive RT112 cells and CFSE labelled FGFR3-negative U87MG cells were seeded onto 96 well round bottom plate with 1.0×10^4 cells for each cell types. The cells were incubated overnight for stable adhesion to plate, followed by treatment with ADCs or PBS and incubation for a week. After incubation, the cells were centrifuged at 2300 rpm for 2 min, and then supernatant was discarded. The cells were washed once with PBS, detached, and resuspended into flow cytometry staining buffer containing LIVE/DEAD staining dye. Finally, the total amount of FGFR3-positive and FGFR3-negative cells and their viability were detected and analyzed by Flow cytometer (Novocyte, Agilent).

[3] = tested on: AMB-BT-0050T patient-derived cells; experiment: Survival in orthotopic glioblastoma PDX model; assay type: in vivo, BALB/c nude mice; conditions: ADC20 20 mg/kg once intravenous, monotherapy; FIG. 7.2
Procedure: 1) For evaluating the survival rate in an orthotopic mouse model of brain tumor with target expression, AMB-BT-0050T patient-derived cells were sub-cultured and mixed 2.0×10^5 cells with the medium. 7-wk-old female BALB/c nude mice were used for intracranial transplantation. The prepared patient-derived cells were injected into the brains of mice by stereotactic intracranial injection at a depth of 3.2 mm at a position of 1.7 mm left and 0.5 mm above the bregma. Mice were housed with a 12-h light/12-h dark cycle and ad libitum access to food and water. Therapeutics administration is as follows. TMZ (temozolomide) was injected through oral administration every day for 5 times. […] The survival of mice is evaluated through MST (Median Survival Time) and ILS (Increase Life Span); MST, the time point at which the probability of survival equals 50%; ILS (Increase Life Span), ILS (%)=[(median survival time of treated group)/(median survival time of control group)−1]×100.
2) To furtherly evaluate the survival rate in an orthotopic mouse model of brain tumor with target expression, in AMB-BT-0050T PDX model, mice were grouped and treated with (1) vehicle, (2) TMZ (temozolomide), 20 mg/kg; (3) ADC20 20 mg/kg; (4) combination of TMZ and ADC20. […] The survival of mice is evaluated through MST and ILS.

B1: ADC20: ADC formed by ligase site-specific conjugation of Linker-Payload 2 to anti-FGFR3 antibody A9Q (conjugate)
heavy: EVQLLESGGGLVQPGGSLRLSCAASGFTFSSYDMSWVRQAPGKGLEWVSGIYSGDGSIYYADSVKGRFTISRDNSKNTLYLQMNSLRAEDTAVYYCAKDGPMNEESRFDYWGQGTLVTVSS[human IgG1 constant region not written out]
light: QSVLTQPPSASGTPGQRVTISCSGSSSNIGNNYVSWYQQLPGTAPKLLIYADSKRPSGVPDRFSGSKSGTSASLAISGLRSEDEADYYCASWDYSLSGYVFGGGTKLTVLGQPKAAPSVTLFPPSSEELQANKATLVCLISDFYPGAVTVAWKADSSPVKAGVETTTPSKQSNNKYAASSYLSLTPEQWKSHRSYSCQVTHEGSTVEKTVAPTECGALPETGG
IC50 (AMB-BT-0013T): 700 nM | IC50 (AMB-BT-0050T): 0.4 nM | TGI ([1]; day 24): 100.03% | Tumor volume ([1]; day 24, Mean ± SEM): 100 ± 18 mm^3 | TGI (SW780 cells): 76.66% | Tumor volume (SW780 cells): 526 ± 128 mm^3 | bystander killing effect [2]: more effective bystander killing effect than ADC 19 | progression of brain tumors and survival time [3]: inhibit the progression of brain tumors and prolong the survival time
